{
  "source": "paper PMC9574860",
  "about": "“Chemical Toolkit for PARK7: Potent, Selective, and High-Throughput” (Journal of Medicinal Chemistry, 2022)",
  "note": "In all, about 7,900 compounds went through this assay and about 400 (5.1%) showed an effect of 50% or more. The list shows a part of the results.",
  "data": [
    {"target": "Parkinson's disease protein 7 (PARK7/DJ1) (human, UniProt Q99497)", "sequence (Q99497 whole entry, looked up, the tested form may be a part)": "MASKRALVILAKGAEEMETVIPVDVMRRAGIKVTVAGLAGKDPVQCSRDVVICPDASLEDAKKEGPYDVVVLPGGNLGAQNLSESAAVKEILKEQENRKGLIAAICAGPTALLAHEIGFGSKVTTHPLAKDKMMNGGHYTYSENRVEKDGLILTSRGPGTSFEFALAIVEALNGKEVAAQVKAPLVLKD", "assay": "primary screen, percent inhibition; read as competition with a fluorescent probe by fluorescence polarization; higher = more effect of the substance", "settings": "100 µM", "procedure,_shortened": "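Fluorescence-polarization probe displacement (JYQ-107, 20 nM final, 2 h) after 2 h preincubation of PARK7 (0.2 μM final) with each fragment at 100 μM final. Read-out ex/em 480/520 nm; remaining activity derived from FP signal loss relative to reference controls.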", "units": {"Inhibition %": "%"}, "values": [
      {"smiles": "Cc1n[nH]c(S)nc1=O", "Inhibition %": 2.15},
      {"smiles": "COC(=O)c1cc(B2OC(C)(C)C(C)(C)O2)cn1C(=O)OC(C)(C)C", "Inhibition %": 7.29},
      {"smiles": "C#CC(=O)Nc1cc(OC)c(C(=O)O)cc1Cl", "Inhibition %": 3.68},
      {"smiles": "C=CC(=O)NC1CCOC(C)(C)C1", "note": "(centres unmarked)", "Inhibition %": 9.14},
      {"smiles": "C=CC(=O)N1CC(OC(=O)Nc2cccc(F)c2)C1", "Inhibition %": 3.98},
      {"smiles": "CN1CC(=O)OB(c2cccc(Cl)c2)OC(=O)C1", "Inhibition %": 10.6},
      {"smiles": "C=CC(=O)NCC(=O)Nc1ccc2c(c1)OCCO2", "Inhibition %": 3.23},
      {"smiles": "O=C(CCl)NCCOc1ccc2ccccc2c1", "Inhibition %": 28.3},
      {"smiles": "Cn1cc(C=CC(=O)N2CCN(c3nccs3)CC2)cn1", "Inhibition %": 7.93},
      {"smiles": "O=C(CCl)NC1CCCCCC1", "Inhibition %": 8.24},
      {"smiles": "C=CC(=O)N1CCN(C(=O)OCC(C)C)CC1", "Inhibition %": 11.5},
      {"smiles": "Cc1ccc(CNC(=O)C(C#N)=CN(C)C)cc1", "Inhibition %": 4.58},
      {"smiles": "CCOC(=O)C1CCC(=CB2OC(C)(C)C(C)(C)O2)CC1", "note": "(centres unmarked)", "Inhibition %": 10.3},
      {"smiles": "O=C1CCC(Cc2cccc(O)c2)O1", "note": "(centres unmarked)", "Inhibition %": 7.14},
      {"smiles": "Cc1noc(C)c1C(=O)CCl", "Inhibition %": 13.5},
      {"smiles": "CC(C)CC(CO)NC(=O)c1cccnc1S", "note": "(centres unmarked)", "Inhibition %": 7.34},
      {"smiles": "Cc1cc(C)c(C#N)c(SC2CCOC2=O)n1", "note": "(centres unmarked)", "Inhibition %": 16},
      {"smiles": "C=CCC1N(C(=O)C=C)CCCC1(C)C", "note": "(centres unmarked)", "Inhibition %": 6.79},
      {"smiles": "Cc1ccccc1N1CCN(C(=O)n2ccnc2)CC1", "Inhibition %": 8.38},
      {"smiles": "O=C1CCC(=O)N1Cc1cc(-c2ccccc2)on1", "Inhibition %": 0.792},
      {"smiles": "C=CC(=O)NC1CC(=O)N2CCCCC12", "note": "(centres unmarked)", "Inhibition %": 9.46},
      {"smiles": "Cn1nccc1C=CC(=O)N1CCCCC1C(=O)O", "note": "(centres unmarked)", "Inhibition %": 6.67},
      {"smiles": "CC(C)C1NC(=O)C1(C)C", "note": "(centres unmarked)", "Inhibition %": 0.897},
      {"smiles": "Cc1cccc(C)c1OCC1CO1", "note": "(centres unmarked)", "Inhibition %": 13.6},
      {"smiles": "C=CC(=O)NC1CC(=O)N(c2cccc(OC)c2)C1", "note": "(centres unmarked)", "Inhibition %": 3.42},
      {"smiles": "O=C(CN1CCSC1=O)Nc1nc2ccccc2s1", "Inhibition %": 1.64},
      {"smiles": "CC(C)(C)c1cc(NC(=O)CCl)on1", "Inhibition %": 9.31},
      {"smiles": "CC1CC(Cl)CC(C)O1", "note": "(centres unmarked)", "Inhibition %": 3.99},
      {"smiles": "CCCC(=O)NC1CCCN(c2ccc(C#N)nc2)C1", "note": "(centres unmarked)", "Inhibition %": 5.26},
      {"smiles": "CN(C)c1cccc2c(B(O)O)cccc12", "Inhibition %": 24.8},
      {"smiles": "C=CC(=O)N(CC)Cc1cc(Br)ccc1O", "Inhibition %": 8.51},
      {"smiles": "Cc1cccc(Oc2ccc(NC(=O)CCl)cc2)c1", "Inhibition %": 81.6},
      {"smiles": "Cc1ccc(CC(=O)N2CCCCC2C2OCCO2)cc1", "note": "(centres unmarked)", "Inhibition %": -3.9},
      {"smiles": "COc1cc(C)ccc1S(=O)(=O)n1cccn1", "Inhibition %": 7.7},
      {"smiles": "COC(C)c1cccc(NC(=O)c2cccnc2S)c1", "note": "(centres unmarked)", "Inhibition %": 4.97},
      {"smiles": "CC(N)C1CCCN(C(=O)C=Cc2cccnc2)C1", "note": "(centres unmarked)", "Inhibition %": 7.72},
      {"smiles": "C=CC(=O)Nc1ccc(N(C)C(C)C)c(F)c1", "Inhibition %": 14.9},
      {"smiles": "C=CC(=O)NCc1ccc(=O)[nH]n1", "Inhibition %": 7.52},
      {"smiles": "O=C(CCl)Nc1cc2c(cc1Cl)OCCO2", "Inhibition %": 22.8},
      {"smiles": "C=CC(=O)N1CCc2cccc(Cl)c2C1", "Inhibition %": 2.19},
      {"smiles": "Cc1nccn1S(=O)(=O)c1ccc(Cl)cc1Cl", "Inhibition %": 4.34},
      {"smiles": "N#CC(C(=O)CCl)c1nnc2n1CCCCC2", "note": "(centres unmarked)", "Inhibition %": 11.9},
      {"smiles": "Cc1ccc(C)c(NC(=O)Cn2cnc(C#N)n2)c1", "Inhibition %": 2.34},
      {"smiles": "C=CC(=O)N1CC(=O)NC(C)C1", "note": "(centres unmarked)", "Inhibition %": 5.57},
      {"smiles": "C=CC(=O)N1CCC(C)(OCC)CC1", "Inhibition %": 8.19},
      {"smiles": "Cc1ccc(C)c(NC(=O)CCl)c1", "Inhibition %": 8.12},
      {"smiles": "C=CC(=O)NCc1ccc(C(=O)O)cc1", "Inhibition %": 5.08},
      {"smiles": "Cc1nc(CCCl)no1", "Inhibition %": 2.21},
      {"smiles": "Cl.ClCCn1cccn1", "Inhibition %": 10.8},
      {"smiles": "O=C(CCl)NCC(=O)Nc1ccc(F)c(F)c1", "Inhibition %": 8},
      {"smiles": "Cn1cc(C=CC(=O)N2CCOCC2)cn1", "Inhibition %": 12.5},
      {"smiles": "CCNC(=O)c1cccc(NC(=O)CCl)c1", "Inhibition %": 12.3},
      {"smiles": "C=CC(=O)NC1CCC2(CC1)COC2", "Inhibition %": 12.3},
      {"smiles": "Cl.O=S(=O)(F)CCC1CCCCN1", "note": "(centres unmarked)", "Inhibition %": 1.97},
      {"smiles": "C=CC(=O)N1CCCC1c1nc2ccccc2n1C", "note": "(centres unmarked)", "Inhibition %": 4.28},
      {"smiles": "N#CC(=Cc1csc(-c2ccsc2)n1)C(=O)NC1CC1", "Inhibition %": 5.55},
      {"smiles": "COc1ccc(N2CCN(C(=O)CCCl)CC2)cc1", "Inhibition %": 18.5},
      {"smiles": "C=CC(=O)N1CCN(c2cccc(C)c2)CC1", "Inhibition %": 11},
      {"smiles": "Cn1ncc(C(=O)Nc2cccc(S(=O)(=O)F)c2)c1C#N", "Inhibition %": 4.68},
      {"smiles": "O=C1CN(C(=O)CCl)C2(CCCCC2)C(=O)N1", "Inhibition %": 38.3},
      {"smiles": "COc1ncc(B2OC(C)(C)C(C)(C)O2)cc1C(F)(F)F", "Inhibition %": 1.49},
      {"smiles": "Cc1nc(C=CC(=O)N2CCCC[C@@H]2C(=O)O)cs1", "Inhibition %": 6.39},
      {"smiles": "N#Cc1cnc(OCC(F)(F)F)cn1", "Inhibition %": 4.9},
      {"smiles": "Cc1cc(C)n(S(=O)(=O)c2ccc(Cl)c(C)c2)n1", "Inhibition %": 7.52},
      {"smiles": "N[C@@H]1CCN(C(=O)C=Cc2cc3ccccc3o2)C1", "Inhibition %": 18.2},
      {"smiles": "CCN(CC)CCn1c(S)nc2ccccc2c1=O", "Inhibition %": 4.52},
      {"smiles": "C=CC(=O)N1CCOc2c1c(C)nn2C", "Inhibition %": 23.5},
      {"smiles": "CCN(C(=O)CCl)C1CCCCC1", "Inhibition %": 9.37},
      {"smiles": "O=C(Nc1ccc(F)cc1)N1CCC(C2OCCO2)CC1", "Inhibition %": 9.17},
      {"smiles": "COC(Cc1cccc(Cl)c1)OC", "Inhibition %": 28.9},
      {"smiles": "CCOC(=O)c1sc(NC(=O)CCl)c(C#N)c1C", "Inhibition %": 3.35},
      {"smiles": "CC1(C)[C@@H](Nc2cnc(C#N)cn2)[C@@H]1c1ccccc1", "note": "(racemic)", "Inhibition %": 10.2},
      {"smiles": "COCCOc1cccc(B(O)O)c1", "Inhibition %": 4.68},
      {"smiles": "O=C(CCl)Nc1ccc(S(=O)(=O)N2CCCC2)cc1", "Inhibition %": 85.4},
      {"smiles": "O=C(CCl)N1CCC(c2nc3ccccc3s2)CC1", "Inhibition %": 38.1},
      {"smiles": "C=CC(=O)N1CCC(CC(=O)NC)CC1", "Inhibition %": 5.8},
      {"smiles": "Clc1ccc(Cl)c(C2CO2)c1", "note": "(centres unmarked)", "Inhibition %": 11.1},
      {"smiles": "O=C(CCl)Nc1cccc(S(=O)(=O)N2CCOCC2)c1", "Inhibition %": 8.1},
      {"smiles": "Cc1nc(S)c(C#N)c(-c2ccco2)c1C(=O)N(C)C", "Inhibition %": 27.4},
      {"smiles": "C=CC(=O)NC1COC(C)C1", "note": "(centres unmarked)", "Inhibition %": 5.84}
    ]}
  ]
}
